From patent EP0279458A1, “2-Propyl amine derivatives, processes for their preparation and their use” (GÖDECKE AKTIENGESELLSCHAFT, priority 1987, dated 1988)
Structures can show the parent of a compound that is named as a salt. At least one read-out could not be matched to a standard name with certainty.

Test system: gelfiltrierte Human-Thrombozyten
Assay: Oleoylacetylglycerol (OAG)-induced platelet aggregation (aggregometer, gel-filtered platelets)
Assay type: cell-based
Details: OAG 5 × 10⁻⁵ M, 3 min preincubation

Structure (SMILES)	Inhibierung der OAG-induzierten Plättchen Aggregation (%) (konz. 1x10^-5 mol/l)	Inhibierung der OAG-induzierten Plättchen Aggregation (%) (konz. 3x10^-5 mol/l)	Inhibierung der OAG-induzierten Plättchen Aggregation (%) (konz. 1x10^-6 mol/l)	Inhibierung der OAG-induzierten Plättchen Aggregation (%) (konz. 3x10^-6 mol/l)	Inhibierung der OAG-induzierten Plättchen Aggregation (%) (konz. 1x10^-4 mol/l)
CCCCCCCCCCCCCCOCC(COC(C)=O)N(C)C (racemic) [Beispiel 1b, (±)-2-Dimethylamino-3-tetradecyloxy-1-propylacetat Oxalat]	59%	100%	–	–	–
CCCCCCCCCCCCCCCCCCOCC(N)CO (racemic) [Beispiel 6, (±)-2-Amino-3-octadecyloxy-1-propanol, reference compound]	82%	–	2%	21%	–
CCCCCCCCCCCCCCCCCCSCC(N)CO (racemic) [Beispiel 5, (±)-2-Amino-3-octadecylthio-1-propanol]	35%	–	0%	–	–
CCCCCCCCCCCCCCCCOCC(COC(C)=O)N(C)C (racemic) [Beispiel 1a, (±)-2-Dimethylamino-3-hexadecyloxy-1-propylacetat Oxalat]	0%	23%	–	–	100%
CCCCCCCCCCCCCCCCCCOCC(COC(=O)c1ccccc1)[N+](C)(C)C (racemic) [Beispiel 4, (±)-1-Benzoyloxy-3-octadecyloxy-2-propyl-trimethylammoniumjodid]	28%	99%	6%	–	–
CCCCCCCCCCCCCCCCCCOCC(CO)NCC (racemic) [Beispiel 2, (±)-2-Ethylamino-octadecyloxy-1-propanol · Hydrochlorid]	69%	–	–	14%	–
CCCCCCCCCCCCCCCCCCOCC(COC(C)=O)N(C)C (racemic) [Beispiel 1, (±)-2-Dimethylamino-3-octadecyloxy-1-propylacetat · Hydrochlorid]	32%	69%	–	–	99%
CCCCCCCCCCCCCCCCCCOCC(CO)N(CC)CC.O=C(O)C(=O)O (racemic) [Beispiel 2a, (±)-2-Diethylamino-3-octadecyloxy-1-propanol Oxalat]	82%	–	2%	21%	–
